Data reported in article PMC10398996, “APP family member dimeric complexes are formed predominantly in synaptic compartments” (Cell & Bioscience, 2023).

Target: the molecule itself
Experiment: co-IP; trans: HA and c-myc tagged copies transfected into N2a cells in separate dishes, cells combined 4 h post-transfection and co-cultivated; lysis in 1% NP40 buffer; α-HA antibody beads; blot with α-c-myc

B1: APP∆CT, N-terminally HA tagged or N-terminally c-myc tagged (domain or fragment)
chain: not shown
notes: amyloid precursor protein, splice form APP695, stop codon after position 648 at the C-terminal end of the transmembrane domain; lacks the entire C-terminus; Two differently tagged copies: each chain carries either HA or c-myc, not both; also called Myc APP∆CT 648; HA APP∆CT 648; source: N2a, transiently transfected, in lysate (1% NP40); not shown: HA, N-terminal, kept; c-myc, N-terminal, kept
- fold higher amount co-immunoprecipitated than APP WT: 1 fold higher
